This test addresses T1, human serum albumin (human, UniProt P02768).
T1 construct: Immobilised by amine coupling at approximately 3200 RU and used to capture the Nanobody constructs; also called HSA
Briefly: ProteOn SPR, capture on immobilised HSA. The procedure: NANOBODIES® were captured on human serum albumin and the binding of pre- existing antibodies on the captured NANOBODIES® was evaluated using the PROTEON™ XPR36 (Bio-Rad Laboratories, Inc.). PBS/TWEEN®(polyethylene glycol sorbitan monolaurate) (phosphate buffered saline, pH7.4, 0.005% TWEEN®20) was used as running buffer and the experiments were performed at 25° C. The ligand lanes of a PROTEON™ GLC Sensor Chip were activated with EDC/NHS (flow rate 30 μ/min) and HSA was injected at 10 μg/ml in PROTEON™ Acetate buffer pH4.5 (flow rate 100 μ/min) to render immobilization levels of approximately 3200 RU. After immobilization, surfaces were deactivated with ethanolamine HCl (flow rate 30 μ/min). NANOBODIES® were injected for 2 minutes at 45 μ/min over the HSA surface to render a NANOBODY® capture level of approximately 600 RU. The samples containing pre-existing antibodies were centrifuged for 2 minutes at 14,000rpm and supernatant was diluted 1:10 in PBS-TWEEN®20 (0.005%) before being injected for 2 minutes at 45 μ/min followed by a subsequent 400 seconds dissociation step. […] Binding levels of pre-existing antibodies were determined by setting report points at 125 seconds (5 seconds after end of association). Percentage reduction in pre-existing antibody binding was calculated relative to the binding levels at 125 seconds of a reference NANOBODY®. […]

T1 sequence (P02768 25-609 limits assumed): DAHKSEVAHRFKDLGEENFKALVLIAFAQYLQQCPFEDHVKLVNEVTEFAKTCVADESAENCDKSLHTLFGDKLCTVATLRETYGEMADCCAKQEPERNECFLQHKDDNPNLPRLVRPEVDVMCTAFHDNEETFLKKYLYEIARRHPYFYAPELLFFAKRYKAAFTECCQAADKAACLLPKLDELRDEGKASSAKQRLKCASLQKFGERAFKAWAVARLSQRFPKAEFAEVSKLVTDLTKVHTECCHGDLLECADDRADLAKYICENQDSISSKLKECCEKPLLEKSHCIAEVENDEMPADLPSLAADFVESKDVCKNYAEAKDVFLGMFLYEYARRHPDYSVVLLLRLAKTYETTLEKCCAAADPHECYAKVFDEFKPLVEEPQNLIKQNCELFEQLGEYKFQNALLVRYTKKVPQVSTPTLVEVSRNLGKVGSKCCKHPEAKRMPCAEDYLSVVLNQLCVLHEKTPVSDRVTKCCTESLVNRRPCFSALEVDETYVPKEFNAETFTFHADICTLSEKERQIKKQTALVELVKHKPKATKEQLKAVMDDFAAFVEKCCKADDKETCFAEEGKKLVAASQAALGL

B1: SEQ ID NO:2 (invention) (VHH)
chain: DVQLLESGGGVVQPGGSLRLSCAASGRIFSLPASGNIFNLLTIAWYRQAPGKGRELVATINSGSRTYYADSVKGRFTISRDNSKKTVYLQMNSLRPEDTALYYCQTSGSGSPNFWGQGTLVTVSSGGGGSGGGS[not shown - about 120 residues]GGGGSGGGSEVQLLESGGGVVQPGGSLRLSCAASGRTLSSYAMGWFRQAPGKGREFVARISQGGTAIYYADSVKGRFTISRDNSKNTLYLQMNSLRPEDTALYYCAKDPSPYYRGSAYLLSGSYDSWGQGTLVTVSSA
notes: Trivalent polypeptide: two anti-IL-23 Nanobodies and one anti-serum albumin Nanobody joined by 9GS linkers, with a C-terminal alanine; also called anti-IL 23 polypeptide of the invention
B1: the binding result is given as “binds”.

B2: SEQ ID NO:3 (invention) (VHH)
chain: DVQLLESGGGVVQPGGSLRLSCAASGRIFSLPASGNIFNLLTIAWYRQAPGKGRELVATINSGSRTYYADSVKGRFTISRDNSKKTVYLQMNSLRPEDTALYYCQTSGSGSPNFWGQGTLVKVSSGGGGSGGGSEVQLVESGGGVVQPGNSLRLS[not shown - about 80 residues]SSQGTLVKVSSGGGGSGGGSEVQLLESGGGVVQPGGSLRLSCAASGRTLSSYAMGWFRQAPGKGREFVARISQGGTAIYYADSVKGRFTISRDNSKNTLYLQMNSLRPEDTALYYCAKDPSPYYRGSAYLLSGSYDSWGQGTLVKVSSA
notes: as for B1
Take B2: the binding result was “binds”.

These data come from patent US20210188967A1 (Ablynx, published 2021).
